To fix the notation:
B1: DOMAIN_17432 (protein, listed as Otolemur garnettii)
chain: LQELLTFKDVSVEFSVDEWACLDPAQQTLYRDVMLENYRHLVFLGLTPSKPHLITCLEQSKEPWKVKAYQTVVKHPAVSNH
B2: DOMAIN_18216 (protein, listed as Physeter macrocephalus)
chain: RVVFEDVAVYFSQEEWGLLDEAQRHLYHAVMTENFALVTSLGCWHGAQYEEAPSEQSVSVGMSEVGTPKPDPSTKKAQPYE
B3: DOMAIN_18137 (protein, listed as Monodelphis domestica)
chain: AQVLVTFQDVAVDFTQEEWRLLDPGQKELYKEVMLENVQNVLSLGLPVPREDWISHFDQGRAPWMLEGEGPSNSCLGRERR
B4: DOMAIN_12544 (protein, listed as Gorilla sp.)
chain: AQESITLEDVAVDFTWEEWQLLGAAQKDLYRDVMLENYSNLVAVGYQASKPDALFKLEQGEQPWTIEDGIHSGACSDIWKV
B5: DOMAIN_12849 (protein)
chain: APVTFGDLAIYFSQEEWEWLSPIQKDLYEDVMLENYQNLVSLGLCFRRPNVITLLERGKAPWMVDPVKRRRGLDLGSKGET
modifications: Muntiacus muntjak
B6: DOMAIN_12769 (protein, listed as Macaca fascicularis)
chain: VKESVTFKDVAIDFTLEEWRLMDPTQRNLHKDVMLENYRNLVSLGLAVSKPDMISHLENGKGPWPKPATKNATRTKDISED
B7: DOMAIN_12630 (protein, listed as Macaca fascicularis)
chain: MVSFEDVAVLLSQEEWDCLIPAQRGLYRDVMLETYGNLVSLGLQASKPDVISRLEQGDKPWTPHILRTQISWSWRHKRECY
B8: DOMAIN_12811 (protein, listed as Macaca fascicularis)
chain: CYQDSVTFDDVAVDFTQEEWTLLDPTQRSLYSDVMLENYKNLATVGGQIIKPSLISWLEQEESRTVRGGVLQGRKTQWRGT
B9: DOMAIN_12576 (protein, listed as Gorilla sp.)
chain: FQEPVTFEDVAVYFTQNEWASLHPTQRALYREVMLENYANVTSLSAFPFPKPDLIFQLEQGEAAWGPDPWTLAGGEALRGM
B10: DOMAIN_12734 (protein)
chain: PQKLVTFEDVAVYFTPTEWDGLSPAQRALYRDVMLENYGNVASLGFPILKPAVISQLEGGGELGIPSLLAAGVGSDPPGLW
modifications: Phyllostomus discolor
B11: DOMAIN_13029 (protein, listed as Myotis lucifugus)
chain: B10 chain with L4S, I48L, L49I, S55L, I65G, L68P, G72E, V73T, S75T
B12: DOMAIN_12818 (protein, listed as Macaca fascicularis)
chain: AQESVTFEDVAVNFTNREWQSLTYAQRHLYKHVMLENYGNMVSLGFPFPKPPLISHLERGVEPCVQDPQDRESLSCSYPVS
B13: DOMAIN_12985 (protein, listed as Phascolarctos cinereus)
chain: LQGSVTFQDVAVDFSWEEWGHLGPAQKELYREVMLENYGNLVCLGLAVSSPDVVCQLERGEGPWMPEGDVPGSSCAGWETK
B14: DOMAIN_12599 (protein)
chain: AQVCVTFDDVAVTFTQEEWGHLDPAQRTLYQEVMLETCGLLMSLGCPVPRPELIYQLEHGQELWTVKRDLSGSTCPVDKGK
modifications: Muntiacus muntjak
B15: DOMAIN_12777 (protein, listed as Phascolarctos cinereus)
chain: WQESLTFKDVAVDFTQEEWGLLDHSQKRLYKEVMLENSQNLLSLGIPPLREDLISHLEEGEASWILDRKGPRKSCPDAETR
B16: DOMAIN_12902 (protein, listed as Macaca fascicularis)
chain: RPESVTFEDVAVYFSENEWIGLGPAQRALYRDVMLENYGAVASLAFPFPKPALISQLERGEAPWCSVPWGALDGEDPRSIS
B17: DOMAIN_12728 (protein, listed as Lynx canadensis)
chain: AHRSLMFSDVSIVFSQEEWEYLDLEQRDLYRDVMLENYSNLVSLGCFISKPDVISLLEQGKEPWKVVRKGRRRYADLETRY
B18: DOMAIN_12698 (protein, listed as Phascolarctos cinereus)
chain: GEEAVTFRDVALDFTWEEWGCLSAAQRELYKDVMLENYRNLVSLAGLPGPKPGLISWLEGEEEPHPWDSLVHAARSTSLSK
B19: DOMAIN_12815 (protein, listed as Macaca fascicularis)
chain: FQGSVSFEDVTVGFSQEEWQHLDPSQRALYRDVMLENYSNLVSVGYCVHKPEVIFRLEQGEEPWRLEEEFPSQSFPEVWTA
B20: DOMAIN_13111 (protein, listed as Ailuropoda melanoleuca)
chain: QGLLTFGDVAIEFSQEEWRCLSHTQRELYRDVMLENYGHLLFLGLIVSKPDLVSLLEQRKEPWDVKRKKTVVFDPAVSSHG
B21: DOMAIN_12591 (protein, listed as Bos indicus)
chain: HSEGRLTFQDVAIDFTQEEWECLDPGQRKLYRDVMVENYRNLASLGLVSKVDLVTFLELLKDPRNIRRMKTTAIYPAVSPQ
B22: DOMAIN_12704 (protein, listed as Myotis lucifugus)
chain: AQEPLTFHDVAVDFTWEEWQLLDPEQKDLYRDVMLETYSHLVSVGYEASKPDILSKLDHGEAPWTVAGEIHCGTHSEIWKR
B23: DOMAIN_13004 (protein, listed as Macaca fascicularis)
chain: PQGLVTFGDVAVDFSQEEWEWLNPNQRNLYRKVMLENYKNLASLGLCVSKPDVISSLEQGKEPWTVKRKMTRAWCPDLKIV
B24: DOMAIN_12686 (protein, listed as Phascolarctos cinereus)
chain: AQELVTFQDVAVDFTQEEWGLLDHPQKELYKEVMLENARNALSLGLPVPREGLISHFGQREAPWMMELEDPRTSYPVSQKL
B25: DOMAIN_12829 (protein, listed as Phascolarctos cinereus)
chain: VGHPVTFRDVAVDFSLEEWRCLSPAQRALYRDVMLENYENLVSVGLPVSKPTVISLLEKGEAPWMPQAGAPRGPCPDYLSW
B26: DOMAIN_13089 (protein, listed as Sapajus apella)
chain: PQKLVTFEDVAVYFTQAEWDGLSPAQRILYRDVMLENYGNVASLGFPLLKPAVISQLEGGGELGAPSPLAAGTGLHGLRTV
B27: DOMAIN_13068 (protein, listed as Ailuropoda melanoleuca)
chain: QAEVTFEDVAVLFSREEWGRLGPAQRGLYRDVMLETYRNLVSLGAGPAGPKPGVITQLERGDEPWVLDTQGAKGKERLRVS
B28: DOMAIN_12712 (protein)
chain: FQASVVFEDVAVKFTPEEWALLDRGQRKLYRDVMLETCRNLSSVEKQKFHSNGDLTRMQEGLLRSPLVESVCERIEGDQCG
modifications: Puma concolor
B29: DOMAIN_12598 (protein)
chain: EPVTFEDVAVYFSQNQWASLDSAQRALYREVMLENYANVASLVSPFPRPDLISQLERGEAPWDPNPWEAEDLRGICPGGER
modifications: Muntiacus muntjak
B30: DOMAIN_12646 (protein, listed as Myotis lucifugus)
chain: DAVTFPDVAIDFSRDEWECLNLAQRTLYRKVMLENYRTLVSVGLCVSKPDVISLLEQGEEPWVTDGEMAGGLCPHSECVWM
B31: DOMAIN_13022 (protein, listed as Phascolarctos cinereus)
chain: PLELVTFKDVAVDFSWEEWGHLEPSQKELYREVMLENYRNLVCLGLAISKPDVIFQLEQGEAPWMPEREGPKCRCADWKTR
B32: DOMAIN_13062 (protein, listed as Ursus maritimus)
chain: AKGLLTFGDVAIEFSQEEWECLSHTQRELYRDVILENYGHLLFLGVIVSKPDLVSLLEQRKEPWGEKRNKTRIHVGKNPFG
B33: DOMAIN_12801 (protein, listed as Sapajus apella)
chain: VHGSVTFRDVAIDFSQEEWECLQPAQKTLYRDVMLENYSHLISLGSSISKPDVITLLEQEKEPWMVRRKETNRWYPDLESK
B34: DOMAIN_12831 (protein, listed as Phascolarctos cinereus)
chain: AQELVTFQDVAVDFTEEEWGLLDHSQKELYKEVMLENAQNLLSLGLPVTREDLISFFQKGEAPWILEPKGPWNFCPDAVTR
B35: DOMAIN_12941 (protein)
chain: CWGLLSFKDISMDFTWEEWQLLDSAQKYLYRDVILENYRNLVSVGYHGTKPDLIFKLEQGEEPWIRNAKISRPRCSEGWKE
modifications: Phyllostomus discolor

Numbering of substitutions follows the chain as printed.

The first assay concerns HBEGF locus. The class given is cell-based, human. To be noted: high-throughput screen of dXR repression of the HBEGF gene; change in abundance of each domain in the library before and after diphtheria toxin selection.
Turning to B1, the “Log2 (fold change)” value stood at 3.11. The same measure, in the same setting: under B2 stands 3.0602; under B3, 3.292.

The same assay, now with this note: repressor domain in dXR, repression of the HBEGF gene; abundance of domain in library after vs before diphtheria toxin selection.
For the molecule B4, the “Log2 (fold change)” value came to 3.306. On the same count and under the same terms, under B5 stands 4.1042; under B6, 2.0555. The same measure, in the same setting: then B7, with 3.6424; and B8, with 2.4278.

With B9, the “Log2 (fold change)” value is given as 3.04. As to B10, the “Log2 (fold change)” value worked out at 3.5207. The same measure, in the same setting: under B11 stands 3.1708. For B12, the “Log2 (fold change)” value came out at 3.6211.

For B13, the “Log2 (fold change)” value came out at 3.7331.

As to B14, the “Log2 (fold change)” value was 2.2098. The same measure, in the same setting: under B15 stands 2.1778; under B16, 3.3489. The same measure, in the same setting: then B17, with 3.1999; and B18, with 2.8029; and B19, with 2.7296. Still for that read-out and setting: under B20 stands 2.6151. Regarding B21, the “Log2 (fold change)” value stood at 3.4169.

As to B22, the “Log2 (fold change)” value worked out at 2.9127.

On to B23, for which the “Log2 (fold change)” value came out at 3.2216. Still for that read-out and setting: under B24 stands 2.76. Same read-out and setting: then B25, with 3.3994; and B26, with 2.8761. The same measure, in the same setting: then B27, with 3.6132; and B28, with 2.1195. As to B29, the “Log2 (fold change)” value is 3.3709.

On to B30, for which the “Log2 (fold change)” value amounted to 3.487.

Regarding B31, the “Log2 (fold change)” value was 3.0468.

For B32, the “Log2 (fold change)” value stood at 2.9752. The same measure, in the same setting: then B33, with 2.0238. On the same count and under the same terms, then B34, with 2.9845. Take B35: the “Log2 (fold change)” value was 2.4012.

For the origin of these results see US12551573B2, “Compositions and methods for the targeting of PCSK9” (Scribe Therapeutics Inc., priority 2022, dated 2026).
